# Source: the supplement of paper PMC3334620
# In all, about 33,000 sequences were measured (“E-score (-0.5 to 0.5)”: median about -0.035, highest 2% from about 0.35 on). Some of the results follow.
# Target: T1, Pdr3 (UniProt P33200)
# T1 sequence: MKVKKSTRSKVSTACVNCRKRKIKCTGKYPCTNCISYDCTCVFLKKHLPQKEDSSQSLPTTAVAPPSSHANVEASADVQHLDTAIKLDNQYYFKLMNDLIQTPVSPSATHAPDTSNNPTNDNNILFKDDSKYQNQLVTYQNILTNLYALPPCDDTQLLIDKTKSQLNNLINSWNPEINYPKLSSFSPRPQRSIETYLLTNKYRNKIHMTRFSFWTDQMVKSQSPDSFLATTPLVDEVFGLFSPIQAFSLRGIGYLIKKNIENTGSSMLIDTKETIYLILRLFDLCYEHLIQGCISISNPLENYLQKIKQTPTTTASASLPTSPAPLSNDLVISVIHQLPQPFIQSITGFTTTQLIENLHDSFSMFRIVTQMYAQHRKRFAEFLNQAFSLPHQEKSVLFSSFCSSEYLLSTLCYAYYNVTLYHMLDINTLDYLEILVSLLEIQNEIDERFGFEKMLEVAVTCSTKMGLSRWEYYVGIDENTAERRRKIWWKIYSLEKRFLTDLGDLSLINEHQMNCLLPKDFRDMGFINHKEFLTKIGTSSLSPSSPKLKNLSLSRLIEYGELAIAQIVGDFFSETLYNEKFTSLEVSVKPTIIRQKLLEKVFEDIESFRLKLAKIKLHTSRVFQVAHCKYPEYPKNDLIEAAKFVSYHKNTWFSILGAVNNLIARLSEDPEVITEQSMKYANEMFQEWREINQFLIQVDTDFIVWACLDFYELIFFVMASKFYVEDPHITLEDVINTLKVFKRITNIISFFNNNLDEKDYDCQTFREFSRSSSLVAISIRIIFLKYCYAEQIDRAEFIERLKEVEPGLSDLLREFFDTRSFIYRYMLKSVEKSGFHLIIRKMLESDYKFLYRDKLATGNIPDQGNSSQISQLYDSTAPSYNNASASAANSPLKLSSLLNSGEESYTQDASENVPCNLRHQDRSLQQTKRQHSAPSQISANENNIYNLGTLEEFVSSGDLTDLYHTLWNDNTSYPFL
# Assay: PBM E-score (8-mer binding enrichment) (E-score (-0.5 to 0.5)); higher = stronger / more preferred TF binding; most listed sequences are background and not binding sites
# Conditions: protein concentration: 200 nM; construct: GST-full length
# How it was run: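 Masliner-normalised scans of fluorescent anti-GST signal were the basis for scoring. That signal came from GST-tagged yeast transcription factors applied at about 100-200 nM to double-stranded universal all-10-mer Agilent arrays on fresh or once-stripped slides. Each ungapped eight-base word, pooled with its reverse complement, received an E-score from the Universal PBM Analysis Suite.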
row,Sequence,PBM E-score
1,GATGGTGA,-0.0273
2,CCCACCAC,0.136
3,AACCTCCA,-0.224
4,GACTGCGA,-0.0659
5,GCGGGAAC,0.286
6,ATGCCTAA,-0.117
7,CTAACGTC,-0.133
8,CGCTGGAG,-0.038
9,CACGAACG,0.05
10,ACCGCCTG,0.00902
11,ATCTACCA,-0.00908
12,GAGTGACA,0.0178
13,GAGGACTA,-0.188
14,AGGACACG,0.0456
15,AATTATCA,-0.0246
16,AACTGGAC,-0.137
17,ATACGCAA,-0.199
18,ACTGGGGA,0.021
19,AGTCTTGA,-0.189
20,AAGAAGCG,-0.0756
21,CGATTCAC,-0.0141
22,GAACGAGC,0.184

row,Sequence,PBM E-score
1,AGGGTCGC,0.0759
2,AATAAGCA,-0.145
3,CCGGGCTC,0.224
4,ACGCCAAG,-0.212
5,TACTGATA,0.0935
6,AGTCACAC,-0.18
7,CTTTTTGC,0.0918
8,AGATGTAG,-0.089
9,ATTTAGAC,-0.00798
10,GCGCGTAA,0.083
11,CTAGTTCA,-0.0835
12,AGGGATAG,-0.138
13,AGATCGGC,0.134
14,AACTTTCA,-0.0834
15,GCTCTCCA,-0.247
16,CTGACCGA,-0.00863
17,AAAGAACC,0.0551
18,GCAGCGTA,-0.109
19,AAAGGCCT,-0.348
20,AACCCCAG,-0.0219
21,AACTGCGA,-0.0651
22,ATTTTTCC,0.216

row,Sequence,PBM E-score
1,CTGGAAGA,-0.108
2,AACCCCCG,-0.0723
3,GCTGCTGA,-0.0859
4,AGGTGCGA,-0.142
5,AGAAAGAA,-0.0141
6,CAAGCTGG,-0.199
7,TAGATAGA,-0.143
8,TCATTCGA,-0.0606
9,CCAACGCC,-0.0466
10,ATTGCAAC,0.115
11,AAACCGGG,0.176
12,ATTAGCAG,-0.0762
13,AGTTTCGA,-0.0452
14,CCATTGGC,-0.104
15,TCATTAGA,-0.15
16,AGACCTGG,-0.0795
17,TCGCGCCA,0.0694
18,ATTACTAC,-0.195
19,ACAGCCGT,0.0938
20,CGTAGGAA,-0.163
21,ATTACCGG,0.243
22,TCTAGTAA,-0.01

row,Sequence,PBM E-score
1,CATCCTGG,-0.0192
2,ATGGATGG,-0.0268
3,CGGCTCGA,0.174
4,ACAAAGCG,-0.0901
5,GATTAACA,-0.0315
6,ACGGAGAC,0.321
7,GCTAGCGA,-0.109
8,AAGTTATA,-0.0822
9,ACCGAACC,0.00677
10,ATGCTAGA,-0.298
11,GGCGTATA,-0.203
12,TAGTCGGA,0.322
13,CTAACTCC,0.0377
14,TTATCGAA,-0.00898
15,ATCGTAGA,-0.204
16,AACGAAAA,-0.0107
17,AACGAGAA,-0.0948
18,CTTACGTA,-0.191
19,TACCTACA,-0.106
20,AACTTTCC,0.238
